PubChem BioAssay AID1159614 (National Center for Advancing Translational Sciences (NCATS), 2016)
Out of some 45,000 compounds screened, about 65 (0.1%) were called active. Calls come from the whole dose curve; as a rule, active = well fitted activation curve with a large enough effect; inconclusive = small, poorly fitted or top-dose-only effect; inactive = no such curve, though single readings can be large or run the other way. The list shows a part of the results.

Target: Galactocerebrosidase (Homo sapiens) (UniProt P54803)
UniProt P54803, sequence (P54803 whole entry, looked up): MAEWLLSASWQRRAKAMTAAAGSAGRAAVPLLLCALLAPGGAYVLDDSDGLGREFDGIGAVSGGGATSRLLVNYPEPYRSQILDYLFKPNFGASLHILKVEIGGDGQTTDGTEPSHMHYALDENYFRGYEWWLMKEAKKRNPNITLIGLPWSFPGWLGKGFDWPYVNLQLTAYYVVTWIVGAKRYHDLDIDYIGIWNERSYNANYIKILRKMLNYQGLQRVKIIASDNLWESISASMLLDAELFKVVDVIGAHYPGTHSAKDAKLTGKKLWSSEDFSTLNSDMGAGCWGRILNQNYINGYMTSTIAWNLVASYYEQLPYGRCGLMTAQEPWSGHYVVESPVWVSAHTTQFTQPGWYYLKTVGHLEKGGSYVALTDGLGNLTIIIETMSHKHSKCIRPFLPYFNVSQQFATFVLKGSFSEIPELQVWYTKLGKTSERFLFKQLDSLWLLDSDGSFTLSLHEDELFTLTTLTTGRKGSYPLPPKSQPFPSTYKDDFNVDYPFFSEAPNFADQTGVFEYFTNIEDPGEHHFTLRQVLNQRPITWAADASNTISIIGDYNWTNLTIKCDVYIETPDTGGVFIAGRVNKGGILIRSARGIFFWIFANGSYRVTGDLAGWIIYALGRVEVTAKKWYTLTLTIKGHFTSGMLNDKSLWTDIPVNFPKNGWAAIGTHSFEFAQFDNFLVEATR
Assay: A Novel Cell-Based Assay to Identify Small Molecules for B -Galactocerebrosidase; note: 0% is about no effect; nearly all actives have a fitted effect of over 65% in size
Conditions: 145M-Twi-hGALC-G270D cells (Twitcher mouse brain line with human GALC G270D), HMU-beta-Gal fluorescence, 48 h; series mostly up to 57.5 µM; activation: at the top concentration
Summary of the method: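 Brain-derived Twitcher mouse 145M-Twi cells stably expressing human GALC-G270D or wild-type GALC, treated live, then residual GALC activity read by fluorescence of HMU-b-Gal substrate (0.1 mM final) in citrate-phosphate buffer pH 5.2 with sodium taurocholate. Signal increase indicates enhancement.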

activation, inactive:
Cc1ccccc1NC(=O)CS(=O)(=O)c1cccc2nsnc12 -4.48%, Cc1c(Cl)cccc1NC(=O)c1ccc(NC(=O)N2CCSc3ncccc32)cc1 -6.61%, CCc1c(C)sc2c1CCN(C(=O)Nc1ccccc1C(=O)OC)C2c1ccc(F)cc1 (configuration not stated) -13%, O=C(Nc1ccc(Br)cc1)N1CCC(CN2CCCC2)CC1 -0.816%, CCNC(=O)c1c(NC(=O)COc2ccc(F)cc2)sc2c1CCCC2 -8.17%, CCCc1ccc(OCC(=O)Nc2scc(-c3cccs3)c2C(=O)OC)cc1 -7.94%, COc1ccc2c(c1)CC(C(=O)NCCN1CCN(c3cccc(Cl)c3)CC1)CO2 (configuration not stated) -8.24%, O=C(c1ccc2c(c1)N(Cc1ccc(F)cc1)CCS2)N1CCN(c2ccccc2)CC1 -7.56%, Cc1nc(Oc2ccccc2C)c2oc3ccccc3c2n1 -10.2%, Cc1ccc(CNC(=O)c2sc3nc4n(c(=O)c3c2C)CCCC4)cc1 -6.97%, NC(=O)NC1NC(=O)NC1=O (configuration not stated) -13.9%, CCCCn1c(C2CC(=O)N(c3ccc(OCC)cc3)C2)nc2ccccc21 (configuration not stated) -15%, O=C(OCC1CCCO1)c1ccc2c(c1)N(Cc1c(F)cccc1Cl)C(=O)c1ccccc1S2(=O)=O (configuration not stated) -1.91%, O=C(O)/C=C\C(=O)O -16.3%, CCc1nnc(NC(=O)c2nc(SCc3ccc(F)cc3)ncc2Cl)s1 -7.68%, CCOc1ccc(OCC)c(NS(=O)(=O)c2ccc3c(c2)CCCN3C(C)=O)c1 -10.3%, Cc1ccc(Cl)cc1N1CCN(C(=O)c2cnc3c(-c4ccc(F)cc4)c(C)nn3c2C)CC1 -9.19%, O=C(Nc1ccccc1C(F)(F)F)C1CCN(c2nnc(-n3cccc3)s2)CC1 -14.9%, Cc1cccc(S(=O)(=O)c2cn(Cc3ccc(F)cc3)c3cc(N4CCOCC4)c(F)cc3c2=O)c1 7.85%, CCC(C(=O)NC1CCCCC1)n1nc(C)c2sc3ccccc3c2c1=O (configuration not stated) 1.49%, COc1ccc(S(=O)(=O)N2CCC(c3nnnn3-c3ccccc3)CC2)cc1OC -49.8%, CCN(CC)S(=O)(=O)c1ccc2c(c1)c(=O)c(C(=O)N1CCN(c3cc(C)ccc3C)CC1)cn2C -19.7%, O=C(Cn1cc(SCc2ccc(F)cc2)c2ccccc21)N1CCCC1 -9.34%, Cc1cc(C)c(NC(=O)c2ccc3nc(C(C)C)oc3c2)c(C)c1 -7.73%, CCOCCn1c(=NC(=O)c2ccc3c(c2)OCCO3)sc2cc(OCC)ccc21 -13.9%, COCC(C)NC(=O)C1=CC(c2ccc3c(c2)OCO3)=NS(=O)(=O)N1C (configuration not stated) -9.69%, COc1ccc(NCc2cccn2-c2nnc(N3CCC(C)CC3)s2)c(OC)c1 -5.76%, CCc1ccc(NC(=O)C(=O)NCCc2sc(-c3ccc(C)cc3)nc2C)cc1 -18.1%, O=C(CSc1nc2c(c(=O)[nH]1)CCC2)Nc1cc(C(F)(F)F)ccc1Cl -13.1%, CSc1ccc(-c2nc3cc(C)ccn3c2Nc2ccc(C)cc2)cc1 -13.8%, Cc1cccc(-c2nc(S(=O)(=O)c3ccccc3)c(N3CCN(c4ccccc4)CC3)o2)c1 -6.44%, CCc1cccc(NC(=O)CSc2nccn2C)c1 -9.33%, Cc1ccc(C(=O)c2cn(Cc3ccccc3)c3cc4c(cc3c2=O)OCCO4)cc1 -10.6%, COc1c(Cl)cc(Cl)cc1C(=O)Nc1cccc2cccnc12 -17.8%, CCOC(=O)c1cc(S(=O)(=O)Nc2cc(C)c(Cl)cc2OC)[nH]n1 -3.1%, Cn1ccc2c(OCC(=O)NCc3ccc(F)cc3)cccc2c1=O -11.4%, CCOC(=O)c1cc(-c2ccccc2)n(CC(=O)Nc2cc(Cl)c(OC)cc2OC)c1C 4.91%, Cc1cc(C)cc(Nc2ncnc3sc4c(c23)CCCC4)c1 3.31%, CC(C)OCCCNC(=O)c1c2c(nc3ccccc13)C(=O)N(C1CCCCC1)C2 -17%, Cc1ccn2c(Nc3ccc(C(C)C)cc3)c(-c3ccsc3)nc2c1 -5.72%, Cc1cccc(Cn2c(CNC(=O)c3ccccc3)nc3ccccc32)c1 -14.5%, CC(=O)c1ccc(NC(=O)CSc2nnc(NC(=O)NC3CCCCC3)s2)cc1 -6.11%, CCCCCOc1ccccc1Cn1c(=O)oc2ccc(C)cc21 -0.856%, Cc1ccc(Nc2c(-c3ccc(N4CCOCC4)cc3)nc3ncccn23)c(C)c1 -7.47%, COCCNC(=O)CCSc1nc(-c2ccc(OC)cc2)cc(C(F)(F)F)n1 -5.27%, Cc1nn(C(C)C(=O)Nc2cccc(F)c2)c(=O)c2c1sc1ccccc12 (configuration not stated) 2.3%, O=C(Cn1c(-c2cccs2)cc2ccccc21)NCCCN1CCN(c2ccc(F)cc2)CC1 -2.93%, CC1CCCN(Cc2c(O)ccc3c(=O)c(-c4ccccc4Cl)c(C(F)(F)F)oc23)C1 (configuration not stated) 3.49%, O=C(NC1CCCC1)c1ccc(CSc2nc3cccnc3n2Cc2ccccc2F)cc1 -6.75%, Cc1ccccc1C(OCCN(C)C)c1ccccc1 (configuration not stated) 7.98%, O=C(COc1ccc(Cl)cc1)N(Cc1ccco1)c1ccccn1 14.4%, Cc1cc(C)c(NS(=O)(=O)c2ccc3c(c2)NC(=O)CCS3)c(C)c1 -2.95%, Cc1c(I)c(=O)n(-c2ccccc2)n1C -12%, Cc1ccc(NC(=O)CCCN2C(=O)COc3ccc(C)cc32)c(Cl)c1 -4.85%, CCOC(=O)c1cnc2ccc(OC(F)(F)F)cc2c1Nc1ccccc1C(=O)O 2.12%, CCC1Oc2ccc(C)cc2N(CC(=O)NCCc2ccccc2)C1=O (configuration not stated) -9.71%, COc1ccc(-c2cnc(C)o2)cc1S(=O)(=O)Nc1cccc(C(F)(F)F)c1 -7.36%, O=C(Nc1cccc(C(F)(F)F)c1)C1CCN(S(=O)(=O)c2cccc3nsnc23)CC1 5.95%, CCOC(=O)c1cnn2c(C(F)(F)F)cc(-c3ccc(Br)cc3)nc12 -0.891%, CCc1ccccc1NS(=O)(=O)c1ccc2[nH]cc(C(=O)NC3CCCC3)c(=O)c2c1 -4.56%, NC(=O)C1CCN(c2ncnc3c2cnn3-c2cccc(Cl)c2)CC1 -12.4%, CC(C)COc1ccc(C(=O)Nc2onc3c2CCCC3)cc1 13.8%, Cc1ccc(NC(=O)Cn2nc(C(F)(F)F)c3c2CCC3)cc1C -7.41%, CCOc1ccc(CCNC(=O)CCn2c(=O)c3cccn3c3ccc(F)cc32)cc1 0.477%, O=C(Nc1ccc(OCc2cc(=O)n3c4c(sc3n2)CCCC4)cc1)c1ccc(F)cc1 -11.2%, COc1ccc(-n2nnnc2SCC(=O)NCCc2ccccc2)cc1 -13.2%, Cc1ccccc1-c1noc(CSc2nc(-c3ccc(F)cc3)cc(=O)[nH]2)n1 5.96%, COC(=O)Cc1c(C)c2ccc3c(c2oc1=O)CN(Cc1ccc(C)cc1)CO3 -19.8%, CCc1ccc(N2CC(c3nc4ccccc4n3Cc3ccccc3C)CC2=O)cc1 (configuration not stated) -30%, CCOc1ccc(C(=O)NCCc2sc(-c3cccc(F)c3)nc2C)cc1OCC -10.9%, Cc1cccc(CNC(=O)CCCN2C(=O)c3cccnc3Oc3ccccc32)c1 -7.83%, COc1ccc(-c2noc(-c3ccc(NCc4ccco4)c([N+](=O)[O-])c3)n2)cc1OC 0.933%, O=C(CSc1oc(-c2cccs2)nc1S(=O)(=O)c1ccccc1)Nc1ccc(F)cc1 -8.83%, CN(C(=O)CSc1nc2ccc(NC(=O)c3ccccc3)cc2s1)c1ccccc1 -32.4%, COc1ccc(Cn2c(NCC(C)C)nc3c2c(=O)n(C)c(=O)n3C)cc1 -14.5%, Cc1ccc(C2=NN(CCC(=O)NCCc3cccc(C)c3)C(=O)CC2)cc1 11.2%, CCOC(=O)CSc1nc(-c2ccc(OC)cc2)cc(C(F)(F)F)c1C#N -6.52%, COc1cc(CN(C(=O)c2ccc(C)cc2)c2ccccn2)cc(OC)c1OC -26.2%, Cc1ccc(-n2nc(C)c3c(C(=O)Nc4ccc(C)cc4Cl)cc(C)nc32)cc1 -9.99%, COc1ccc(OC)c(CNC(=O)c2cnc(N(C)C)nc2)c1 -8.19%, CC(=O)Nc1cccc(-c2nnc(SCC(=O)c3ccc([N+](=O)[O-])cc3)o2)c1 -14.8%, CCOc1ccccc1/C=C/c1onc(C)c1S(=O)(=O)N1CCC(C(=O)N2CCCCC2)CC1 -10.6%, COc1ccc(C(=O)CC2(O)C(=O)N(CCc3ccccc3)c3ccc(Br)cc32)cc1OC (configuration not stated) -5.84%, O=S(=O)(c1ccc2nc(Nc3ccc(Br)cc3F)ccc2c1)N1CCCC1 0.563%, COc1ccc(-n2nc(C(=O)N3CCN(c4cccc(C)c4)C(C)C3)c3c4ccccc4n(C)c3c2=O)cc1Cl (configuration not stated) -9.42%, O=C(Cn1nc2c(cc1=O)CCCC2)NCc1ccccc1 -7.33%, Cc1ccccc1-c1noc(-c2ccc(NC3CCCC3)c([N+](=O)[O-])c2)n1 -2.28%, COc1cccc(-n2c(=O)c3c4c(sc3n(Cc3ccccc3C#N)c2=O)CCCC4)c1 -17.5%, O=S(=O)(NCC(c1ccco1)N1CCOCC1)c1ccc(Br)cc1 (configuration not stated) -8.03%, Cc1ccccc1-c1ccnc2[nH]n(-c3ccccc3)c(=O)c12 -5.53%, Cc1ccccc1NC(=O)c1cn(-c2ccccc2)nc1-c1ccccc1 -5.15%, COc1ccc(OC)c(CN2CCN(S(=O)(=O)c3ccccc3)CC2)c1 -15.4%, O=C(NCCc1ccccc1)c1ccc2nc(N3CCCCC3)sc2c1 -12.2%, CCOc1ccc(NC(=O)c2sc3nc4c(c(-c5ccccc5)c3c2N)C(=O)CC(C)(C)C4)cc1 -7.02%, CCCn1c2ccccc2c2cnn(CC(=O)NCCCN3CCCCC3)c(=O)c21 -10.7%, OCC(O)CS (configuration not stated) -16.3%, CCOc1cc(C2C(C(=O)OC)=C(C)NC3=C2C(=O)c2ccccc23)ccc1OC (configuration not stated) -11.6%, Cc1ccc(S(=O)(=O)c2cnc(SCC(=O)Nc3ccc4c(c3)OCCO4)[nH]c2=O)cc1Cl 1.52%, CCOC(=O)c1c(NC(=O)CSc2cn(CCNC(=O)c3cccc(C(F)(F)F)c3)c3ccccc23)sc2c1CCC2 -5.85%, Cc1ccc2oc(C(=O)N(Cc3ccc(N(C)C)cc3)CC3CCCO3)c(C)c2c1 (configuration not stated) 2.52%, COc1cccc(C(=O)Nc2nc3ccc(S(=O)(=O)N4CCCC4)cc3s2)c1 -11.3%, O=C(Nc1ccc(Br)cc1)c1cc(-c2cccs2)nc2ccccc12 -16.1%
